PubChem BioAssay AID504332 (National Center for Advancing Translational Sciences (NCATS), 2011)
The whole screen tested about 350,000 compounds, of which about 31,000 (8.9%) were called active. The shares of active, inactive and inconclusive entries below differ from those in the screen. Calls come from the whole dose curve; as a rule, active = well fitted inhibition curve with a large enough effect; inconclusive = small, poorly fitted or top-dose-only effect; inactive = no such curve, though single readings can be large or run the other way. Potencies of inconclusive entries are doubtful fits and often do not repeat.
% is set by controls: 0 for no effect and ±100 for the full control effect; potency is the fitted concentration of half-maximal effect; tags give direction and shape of the fitted curve.
Note: nearly all actives have a fitted effect of over 75% in size.

The compounds below were run against Histone-lysine N-methyltransferase EHMT2 (Homo sapiens) (UniProt Q96KQ7) (assay: qHTS Assay for Inhibitors of Histone Lysine Methyltransferase G9a). Conditions: G9a H3K9 monomethylation, AlphaScreen, 2 h; activity, negative = inhibition: at 59 µM (top of the series) unless noted.
Chain of UniProt Q96KQ7 (Q96KQ7 whole entry, looked up): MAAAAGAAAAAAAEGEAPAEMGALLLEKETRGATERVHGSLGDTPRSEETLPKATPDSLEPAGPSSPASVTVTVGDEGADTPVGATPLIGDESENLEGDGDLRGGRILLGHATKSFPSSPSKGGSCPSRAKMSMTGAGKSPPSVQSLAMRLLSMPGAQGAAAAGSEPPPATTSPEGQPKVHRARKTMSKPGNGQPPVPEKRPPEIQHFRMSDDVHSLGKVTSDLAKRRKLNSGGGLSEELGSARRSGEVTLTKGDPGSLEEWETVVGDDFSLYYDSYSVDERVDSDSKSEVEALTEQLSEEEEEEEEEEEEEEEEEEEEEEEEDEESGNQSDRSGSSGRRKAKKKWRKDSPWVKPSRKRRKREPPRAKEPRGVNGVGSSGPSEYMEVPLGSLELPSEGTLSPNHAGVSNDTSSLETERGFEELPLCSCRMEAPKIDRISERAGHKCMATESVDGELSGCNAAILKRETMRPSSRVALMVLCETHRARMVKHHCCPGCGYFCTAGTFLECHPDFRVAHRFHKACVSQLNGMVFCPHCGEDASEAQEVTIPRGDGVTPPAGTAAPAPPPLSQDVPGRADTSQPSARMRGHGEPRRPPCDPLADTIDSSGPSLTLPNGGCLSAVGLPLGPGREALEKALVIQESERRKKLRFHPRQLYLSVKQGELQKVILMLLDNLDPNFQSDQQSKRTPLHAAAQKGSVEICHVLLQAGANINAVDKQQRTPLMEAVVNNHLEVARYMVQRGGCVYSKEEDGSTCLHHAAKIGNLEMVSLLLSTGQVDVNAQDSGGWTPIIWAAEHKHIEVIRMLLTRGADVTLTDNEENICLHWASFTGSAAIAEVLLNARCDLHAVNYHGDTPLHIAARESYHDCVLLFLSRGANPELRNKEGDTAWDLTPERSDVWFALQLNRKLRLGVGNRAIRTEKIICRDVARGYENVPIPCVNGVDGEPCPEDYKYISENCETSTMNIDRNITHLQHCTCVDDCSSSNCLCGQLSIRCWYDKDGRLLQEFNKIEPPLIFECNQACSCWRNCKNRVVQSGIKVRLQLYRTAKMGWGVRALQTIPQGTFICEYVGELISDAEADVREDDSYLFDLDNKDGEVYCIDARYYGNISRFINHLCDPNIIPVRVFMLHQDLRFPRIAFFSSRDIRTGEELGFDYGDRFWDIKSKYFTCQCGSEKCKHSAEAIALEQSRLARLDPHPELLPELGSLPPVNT
In short: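 Chemiluminescent proximity detection of H3K9 monomethylation, read after 10 min bead incubation in the dark. Reaction: 20 nM G9a, 500 nM biotin-H3K9 peptide, 20 uM SAM cofactor, 2 h, room temperature, following 15 min enzyme-compound preincubation.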
In the case of C/C(=N\Nc1nc(-c2cc(C)ccc2C)cs1)c1cc2ccccc2oc1=O, the Potency is reported as inconclusive: 39.8 µM [inhibitor, single point]. In the case of Cc1ccc(S(=O)(=O)Oc2ccc(/C=C3/N=C(c4ccccc4)OC3=O)cc2)cc1, the Potency is reported as inconclusive: 89.1 µM [inhibitor, single point]. For CN1CCC(Oc2ccccc2Sc2ccccc2)CC1, the Potency was inconclusive: 28.2 µM [inhibitor, single point]. In the case of Cn1cccc1/C=N/NC(=O)CSc1nc2ccccc2[nH]1, the Potency is reported as inconclusive: 89.1 µM [inhibitor, partial curve, poor fit]. CC1=C(C(=O)OC(C)C)C(c2ccc(N(C)C)cc2)C2=C(CC(C)(C)CC2=O)N1 (centres undefined) was tested, and the Potency was inconclusive: 1.12 µM [inhibitor, single point]. In the case of C=C(C)Cn1c(SCC(=O)Nc2cccc(Cl)c2)nc2sc3c(c2c1=O)CCCC3, the “activity, negative = inhibition” value is reported as inactive: -3%. For COc1ccccc1CC(=O)Nc1ccc(S(=O)(=O)N2CCOCC2)cc1, the Potency was inconclusive: 79.4 µM [inhibitor, single point]. In the case of OC1(c2ccc(Br)cc2)CCN(Cc2cccc(Br)c2)CC1, the Potency is reported as inconclusive: 79.4 µM [inhibitor, single point]. In the case of Cc1ccc(S(=O)(=O)NC(=O)Nc2ncc3c(n2)CC(c2ccco2)CC3=O)cc1 (centres undefined), the Potency is reported as active: 17.8 µM. With Cc1ccc(N2CC(NS(=O)(=O)c3cccs3)CC2=O)cc1 (centres undefined) the “activity, negative = inhibition” value was inactive: -7.52% [at 102 µM]. With Cc1ccc(NC(=O)CC2Sc3ccccc3NC2=O)c(Br)c1 (centres undefined) the “activity, negative = inhibition” value was inactive: -42.6%. For CCOC(=O)c1cccc(NC(=O)c2cnc(N3CCCCC3)c3ccccc23)c1, the “activity, negative = inhibition” value was inactive: 22.8%. With CCC1=Nc2ccccc2NC2=C1C(=O)CCC2 the Potency was inconclusive: 1.58 µM [inhibitor, partial curve, poor fit]. In the case of COc1ccc(-c2cc(C(=O)NCC(c3ccco3)N(C)C)c3ccccc3n2)cc1OC (centres undefined), the Potency is reported as inconclusive: 89.1 µM [inhibitor, partial curve, poor fit]. In the case of COc1ccc(-n2c(=O)c3c(c4cc(OC)ccc4n3C)n(C)c2=O)cc1, the “activity, negative = inhibition” value is reported as inactive: -2.12%. Nc1cc(OCC(F)(F)F)cc(OCC(F)(F)F)c1 was tested, and the Potency was inconclusive: 35.5 µM [inhibitor, partial curve, poor fit]. In the case of Cc1ccc(OCC(=O)c2cc(C)n(CC(F)(F)F)c2C)c([N+](=O)[O-])n1, the Potency is reported as inconclusive: 44.7 µM [inhibitor, partial curve]. Cn1nc(-c2ccc(Cl)cc2)c2cc(C(=O)N3CCOCC3)sc21 was tested, and the “activity, negative = inhibition” value was inactive: -13.4% [at 102 µM]. In the case of Cc1ccc(C)c(NC(=O)CSc2ccc(-c3ccco3)nn2)c1, the “activity, negative = inhibition” value is reported as inactive: -13.8%. For COc1ccc(N2CCN(C3CCCN(C(=O)c4ccoc4)C3)CC2)cc1 (centres undefined), the Potency was inconclusive: 12.6 µM [inhibitor, partial curve, poor fit]. For CC1CCc2nc(NC(=O)c3ccc(N4C(=O)CCC4=O)cc3)sc2C1 (centres undefined), the activity, negative = inhibition was inactive: -1.96% [at 12.7 µM]. For Cc1ccc(C(=O)C(C)Sc2nnc(N)s2)cc1 (centres undefined), the Potency was inconclusive: 89.1 µM [inhibitor, partial curve, poor fit]. Cc1cccc(C)c1N1CCN(C(=O)N2CCOCC2)CC1 was tested, and the Potency was active: 35.5 µM. CS(=O)(=O)c1ccc2nnn(OCC(=O)Nc3cccc(C#N)c3)c2c1 was tested, and the Potency was inconclusive: 56.2 µM [inhibitor, partial curve, poor fit]. COc1ccc(CCC(=O)Nc2nc(C)c(C(=O)N(C)C)s2)cc1 was tested, and the Potency was inconclusive: 56.2 µM [inhibitor, single point]. For CC(C)C(=O)N1CCN(c2ccccc2NC(=O)c2cc([N+](=O)[O-])ccc2N2CCOCC2)CC1, the Potency was inconclusive: 89.1 µM [inhibitor, single point]. COc1nc(-c2cnccn2)sc1C was tested, and the Potency was inconclusive: 89.1 µM [inhibitor, single point]. In the case of Cc1ccc(N(CC(=O)N2CCN(c3cc(Cl)ccc3C)CC2)S(=O)(=O)c2c(C)noc2C)cc1, the “activity, negative = inhibition” value is reported as inactive: 2.61%. In the case of CCOC(=O)N/N=C\C=C\c1ccco1, the Potency is reported as inconclusive: 25.1 µM [inhibitor, single point]. For CCS(=O)c1scc(-c2ccc(Cl)cc2)c1C#N (centres undefined), the Potency was active: 50.1 µM. For CCC(NC(=S)NC1CCCCC1)c1ccccc1 (centres undefined), the “activity, negative = inhibition” value was inactive: 73.1% [at 102 µM]. CCN(CC)c1ccc(S(=O)(=O)Nc2cc(Cl)ccc2Cl)cc1NC(=S)NC(=O)C1CCCC1 was tested, and the Potency was inconclusive: 3.55 µM [inhibitor, full curve]. For CCN(CC)S(=O)(=O)c1cc(NC(=O)c2cccc(N3C(=O)CCC3=O)c2)ccc1Cl, the Potency was inconclusive: 79.4 µM [inhibitor, single point]. Cc1ccccc1NC(=O)CC1SC(=O)N(c2ccccc2)C1=O (centres undefined) was tested, and the Potency was inconclusive: 3.16 µM [inhibitor, partial curve, poor fit]. For Cc1oc2c(c1C(=O)Nc1ccc(C(=O)O)cc1)CCCC2, the Potency was inconclusive: 22.4 µM [inhibitor, single point]. With Cc1ccc2nc(NC(=O)CSc3nccn3Cc3ccccc3)sc2c1 the Potency was inconclusive: 31.6 µM [inhibitor, partial curve, poor fit]. With Cc1cccc(-c2nc(CS(=O)CC(=O)NCCCSC3CCCCC3)c(C)o2)c1 (centres undefined) the Potency was inconclusive: 50.1 µM [inhibitor, partial curve, poor fit]. In the case of O=C(c1ccc(Cl)c([N+](=O)[O-])c1)N1CCN(Cc2ccc3c(c2)OCO3)CC1, the “activity, negative = inhibition” value is reported as inactive: -40.5% [at 102 µM]. For CCOC(=O)c1cnc2ccccc2c1Nc1ccc(N2CCOCC2)cc1, the Potency was inconclusive: 28.2 µM [inhibitor, single point]. With COc1ccc(N(C)S(=O)(=O)c2ccc(C)cc2)c([N+](=O)[O-])c1 the Potency was inconclusive: 79.4 µM [inhibitor, single point]. In the case of COc1ccc(CC(=O)Nc2ccc(OC)c(NC(=O)c3ccco3)c2)cc1, the Potency is reported as active: 50.1 µM. In the case of CN(C)CCNS(=O)(=O)c1ccc(Cl)cc1, the Potency is reported as inconclusive: 35.5 µM [inhibitor, single point]. For COc1ccc(N2C(=O)C(CC(=O)O)S/C2=N\N=C\c2cccs2)cc1 (centres undefined), the Potency was inconclusive: 63.1 µM [inhibitor, single point]. Cc1ccc(S(=O)(=O)N2CCOCC2)cc1NC(=O)COC(=O)CNC(=O)c1ccc(C(C)(C)C)cc1 was tested, and the Potency was active: 50.1 µM. With COc1ccc(N2CC(C(=O)N/N=C/c3cccs3)CC2=O)cc1 (centres undefined) the “activity, negative = inhibition” value was inactive: 11.9%. With CC(C)(C)c1ccc(C(=O)CC(Sc2ccc(Cl)cc2)C(=O)O)cc1 (centres undefined) the Potency was active: 44.7 µM. For CCNC(=O)C1CC(=O)N(CC)C(=Nc2cc(Cl)c(O)c(Cl)c2)S1 (centres undefined), the Potency was inconclusive: 17.8 µM [inhibitor, single point]. Cc1ccc(C)c(N2CCN(C(c3ccc(F)cc3)c3nnc(-c4ccccc4)o3)CC2)c1 (centres undefined) was tested, and the Potency was inconclusive: 20 µM [inhibitor, partial curve, poor fit]. For O=c1c2ccccc2[nH]c(=S)n1CCCn1ccnc1, the Potency was inconclusive: 89.1 µM [inhibitor, partial curve, poor fit]. Nc1cc(C(=O)O)c(N)c2c1C(=O)c1ccccc1C2=O was tested, and the Potency was inconclusive: 3.16 µM [inhibitor, single point]. Cc1noc2ncnc(NCc3ccccc3Cl)c12 was tested, and the “activity, negative = inhibition” value was inactive: 1.98%. For Cc1ccc(NC(=O)CNCC2CCCCC2)cc1S(=O)(=O)N(C)C, the Potency was inconclusive: 8.91 µM [inhibitor, partial curve, poor fit]. In the case of O=C(Cn1cnc2c(nnn2-c2ccccc2)c1=O)NCc1ccc(F)cc1, the Potency is reported as inconclusive: 79.4 µM [inhibitor, single point]. For CCN(c1ccccc1)S(=O)(=O)c1ccc(C(=O)N(C)CCc2ccc(OC)c(OC)c2)cc1, the “activity, negative = inhibition” value was inactive: -4.55% [at 102 µM]. In the case of CC1(C)c2ccccc2N2CC(=O)N(CC(N)=O)C21C (centres undefined), the Potency is reported as inconclusive: 25.1 µM [inhibitor, single point]. With O=C(c1sc2ccccc2c1Cl)N(Cc1ccco1)C1CCS(=O)(=O)C1 (centres undefined) the Potency was inconclusive: 89.1 µM [inhibitor, single point]. COc1ccc(NC(=O)c2sc3nc(C)c(C(=O)Nc4ccc(C)cc4C)c(-c4cccs4)c3c2N)cc1 was tested, and the “activity, negative = inhibition” value was inactive: -42%. In the case of CNc1ccc(/C=C/C(=O)c2ccc(C)cc2)cc1[N+](=O)[O-], the Potency is reported as inconclusive: 4.47 µM [inhibitor, single point]. CCn1c2ccccc2c2cc(CN3CCN(S(=O)(=O)CC)CC3)ccc21 was tested, and the Potency was active: 11.2 µM. With Cc1ccc(S(=O)(=O)NNc2ccccc2)cc1 the activity, negative = inhibition was inconclusive: -77% [inhibitor] [at 0.501 µM]. In the case of Cc1ccccc1NC(=O)c1c(O)c2cccc3c2n(c1=O)CC3, the “activity, negative = inhibition” value is reported as inactive: -2.58% [at 102 µM]. CN(C)c1ccc(/C=N/N=C/c2ccccc2O)cc1 was tested, and the Potency was inconclusive: 12.6 µM [inhibitor, partial curve, poor fit]. Cc1cc(C)nc(NS(=O)(=O)c2ccc(NC(=O)COc3ccccc3F)cc2)n1 was tested, and the activity, negative = inhibition was inactive: 16.6% [at 12.7 µM]. COc1cccc(C(=O)Nc2nnc(SCC(=O)Nc3ccc(NC(C)=O)cc3)s2)c1 was tested, and the Potency was inconclusive: 56.2 µM [inhibitor, single point]. With Cc1cccc(CSc2nc3c(c(-c4cccs4)c2C#N)CN(C)CC3)c1 the Potency was inconclusive: 39.8 µM [inhibitor, single point]. In the case of CSc1ccccc1C(=O)OCC(=O)N1CCN(C(C)=O)CC1, the activity, negative = inhibition is reported as inactive: -3.84% [at 12.7 µM]. In the case of COc1ccccc1N(CC(=O)NCc1ccc2c(c1)OCO2)C(=O)CCC(=O)Nc1nccs1, the “activity, negative = inhibition” value is reported as inactive: 15.9%. For O=C(Cc1ccccc1)NCc1n[nH]c(=S)n1-c1ccc(Br)cc1, the Potency was inconclusive: 10 µM [inhibitor, full curve]. For CC(=O)n1c2c(c3ccccc31)OC(N)=C(C#N)C2c1cccc(Cl)c1Cl (centres undefined), the Potency was active: 44.7 µM.
